Consider six substances from article PMC11988184.

Chains of the proteins cited; added tags and fusions are not shown. Lines headed by an entry give the natural chain unless they say otherwise; changes in a name come on top. Residues count along the entry.
UniProt Q8BG51: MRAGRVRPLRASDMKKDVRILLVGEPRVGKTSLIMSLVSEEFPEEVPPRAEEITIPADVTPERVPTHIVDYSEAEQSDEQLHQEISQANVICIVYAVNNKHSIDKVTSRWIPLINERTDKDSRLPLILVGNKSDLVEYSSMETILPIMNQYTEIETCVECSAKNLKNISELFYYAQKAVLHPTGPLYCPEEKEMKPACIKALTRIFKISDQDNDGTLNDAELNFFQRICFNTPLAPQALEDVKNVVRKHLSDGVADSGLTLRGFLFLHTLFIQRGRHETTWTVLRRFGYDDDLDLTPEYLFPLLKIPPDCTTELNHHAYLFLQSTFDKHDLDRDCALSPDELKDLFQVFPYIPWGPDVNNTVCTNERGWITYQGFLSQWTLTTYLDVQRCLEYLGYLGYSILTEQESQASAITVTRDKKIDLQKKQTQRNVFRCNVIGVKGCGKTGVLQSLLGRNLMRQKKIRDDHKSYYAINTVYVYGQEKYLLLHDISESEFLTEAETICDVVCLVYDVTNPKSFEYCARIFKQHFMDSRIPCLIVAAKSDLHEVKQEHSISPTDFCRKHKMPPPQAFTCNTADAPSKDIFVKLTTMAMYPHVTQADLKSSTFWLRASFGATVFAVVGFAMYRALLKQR
UniProt Q8IXI2: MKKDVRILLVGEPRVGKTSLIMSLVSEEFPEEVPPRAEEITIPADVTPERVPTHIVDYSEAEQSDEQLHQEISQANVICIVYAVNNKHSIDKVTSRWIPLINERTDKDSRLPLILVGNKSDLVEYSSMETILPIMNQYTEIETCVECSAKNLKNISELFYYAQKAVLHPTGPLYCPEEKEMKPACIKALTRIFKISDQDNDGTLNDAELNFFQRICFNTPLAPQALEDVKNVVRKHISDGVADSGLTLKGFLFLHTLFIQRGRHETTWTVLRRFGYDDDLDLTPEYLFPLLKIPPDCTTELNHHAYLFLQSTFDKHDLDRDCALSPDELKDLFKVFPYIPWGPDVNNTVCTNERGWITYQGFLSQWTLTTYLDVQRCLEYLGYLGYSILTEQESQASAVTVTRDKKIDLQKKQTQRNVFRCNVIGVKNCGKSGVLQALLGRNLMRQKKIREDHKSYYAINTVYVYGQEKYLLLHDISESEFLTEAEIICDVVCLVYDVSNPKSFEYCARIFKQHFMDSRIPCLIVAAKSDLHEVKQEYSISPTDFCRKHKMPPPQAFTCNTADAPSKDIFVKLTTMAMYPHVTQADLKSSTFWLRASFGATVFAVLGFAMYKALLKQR
UniProt Q9QY76: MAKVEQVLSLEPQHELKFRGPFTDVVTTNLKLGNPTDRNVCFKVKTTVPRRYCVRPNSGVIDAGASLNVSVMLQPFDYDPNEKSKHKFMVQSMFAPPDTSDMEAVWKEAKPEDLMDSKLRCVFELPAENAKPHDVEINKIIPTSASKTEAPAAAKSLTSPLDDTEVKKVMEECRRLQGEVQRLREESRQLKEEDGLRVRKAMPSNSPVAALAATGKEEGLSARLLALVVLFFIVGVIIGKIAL
UniProt P38647, residues 47-679: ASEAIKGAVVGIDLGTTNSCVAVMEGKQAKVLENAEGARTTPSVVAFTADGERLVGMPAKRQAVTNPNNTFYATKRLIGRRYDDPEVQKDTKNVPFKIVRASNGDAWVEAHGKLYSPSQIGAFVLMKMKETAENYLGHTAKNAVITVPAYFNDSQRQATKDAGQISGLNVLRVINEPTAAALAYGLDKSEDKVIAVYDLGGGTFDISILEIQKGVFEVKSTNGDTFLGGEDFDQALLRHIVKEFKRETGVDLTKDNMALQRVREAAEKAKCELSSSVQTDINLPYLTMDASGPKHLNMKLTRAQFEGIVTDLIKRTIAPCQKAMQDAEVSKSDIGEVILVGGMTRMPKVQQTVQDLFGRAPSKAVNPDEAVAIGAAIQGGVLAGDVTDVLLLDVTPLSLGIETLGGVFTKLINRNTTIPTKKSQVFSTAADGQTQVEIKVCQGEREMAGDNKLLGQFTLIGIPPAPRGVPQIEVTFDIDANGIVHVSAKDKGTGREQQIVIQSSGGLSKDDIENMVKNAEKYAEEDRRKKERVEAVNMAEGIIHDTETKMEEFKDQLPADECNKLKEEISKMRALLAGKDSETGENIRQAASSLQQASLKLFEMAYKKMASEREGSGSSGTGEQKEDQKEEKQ
UniProt P38646, residues 47-679: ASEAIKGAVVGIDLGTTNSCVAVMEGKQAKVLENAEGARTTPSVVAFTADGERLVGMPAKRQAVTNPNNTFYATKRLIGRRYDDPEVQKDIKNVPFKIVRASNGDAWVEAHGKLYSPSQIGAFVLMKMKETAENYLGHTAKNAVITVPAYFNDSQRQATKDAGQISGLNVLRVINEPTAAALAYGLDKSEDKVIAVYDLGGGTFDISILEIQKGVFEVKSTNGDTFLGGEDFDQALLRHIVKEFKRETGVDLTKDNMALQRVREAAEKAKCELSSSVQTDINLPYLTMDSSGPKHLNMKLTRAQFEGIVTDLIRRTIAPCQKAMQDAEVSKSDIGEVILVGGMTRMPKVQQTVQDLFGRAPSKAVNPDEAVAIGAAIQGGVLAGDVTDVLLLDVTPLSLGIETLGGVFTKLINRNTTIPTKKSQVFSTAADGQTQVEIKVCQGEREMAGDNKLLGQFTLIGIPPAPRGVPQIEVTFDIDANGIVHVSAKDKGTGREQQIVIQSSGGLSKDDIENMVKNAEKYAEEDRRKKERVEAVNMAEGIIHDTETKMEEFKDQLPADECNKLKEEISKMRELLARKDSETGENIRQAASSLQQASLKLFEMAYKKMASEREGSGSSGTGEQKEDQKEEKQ
UniProt Q8NE86, residues 51-351: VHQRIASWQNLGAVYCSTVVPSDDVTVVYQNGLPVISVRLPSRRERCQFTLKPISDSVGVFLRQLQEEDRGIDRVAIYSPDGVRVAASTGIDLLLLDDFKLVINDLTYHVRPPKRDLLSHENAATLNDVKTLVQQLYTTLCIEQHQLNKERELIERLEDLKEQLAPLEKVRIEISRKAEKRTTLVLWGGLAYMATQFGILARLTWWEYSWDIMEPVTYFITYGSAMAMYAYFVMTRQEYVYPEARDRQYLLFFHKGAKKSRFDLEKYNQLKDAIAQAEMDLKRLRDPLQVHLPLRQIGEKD
UniProt P21796: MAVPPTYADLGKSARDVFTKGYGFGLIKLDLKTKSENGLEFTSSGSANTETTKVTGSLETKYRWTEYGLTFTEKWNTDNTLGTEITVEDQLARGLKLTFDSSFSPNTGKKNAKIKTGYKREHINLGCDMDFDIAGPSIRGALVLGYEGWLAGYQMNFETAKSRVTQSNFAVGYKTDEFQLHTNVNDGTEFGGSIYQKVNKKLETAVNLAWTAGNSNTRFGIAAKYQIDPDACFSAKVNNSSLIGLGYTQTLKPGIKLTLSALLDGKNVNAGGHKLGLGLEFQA
UniProt O95292: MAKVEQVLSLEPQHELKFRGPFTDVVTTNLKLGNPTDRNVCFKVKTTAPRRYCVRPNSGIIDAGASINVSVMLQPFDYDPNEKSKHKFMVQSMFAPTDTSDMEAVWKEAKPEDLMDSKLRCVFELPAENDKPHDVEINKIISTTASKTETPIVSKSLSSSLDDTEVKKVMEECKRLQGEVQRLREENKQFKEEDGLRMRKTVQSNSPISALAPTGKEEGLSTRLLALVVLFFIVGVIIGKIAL

The target of assay [1] is T1, PTPIP51, endogenous in mouse VSMCs (mouse (endogenous in aortic VSMCs)) (UniProt Q3UJU9).
T1 sequence: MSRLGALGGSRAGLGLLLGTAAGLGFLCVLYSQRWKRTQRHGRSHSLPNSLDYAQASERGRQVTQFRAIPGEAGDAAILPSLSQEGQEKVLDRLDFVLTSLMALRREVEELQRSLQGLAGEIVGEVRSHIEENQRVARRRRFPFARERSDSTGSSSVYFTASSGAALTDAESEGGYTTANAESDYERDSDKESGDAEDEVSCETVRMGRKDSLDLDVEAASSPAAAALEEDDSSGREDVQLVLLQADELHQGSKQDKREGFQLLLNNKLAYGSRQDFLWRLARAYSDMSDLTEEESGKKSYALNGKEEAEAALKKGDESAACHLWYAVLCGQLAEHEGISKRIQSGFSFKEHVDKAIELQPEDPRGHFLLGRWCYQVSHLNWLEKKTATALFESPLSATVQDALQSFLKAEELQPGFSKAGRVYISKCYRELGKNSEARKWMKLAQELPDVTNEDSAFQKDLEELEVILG
Kind of assay: proximity ligation; Duolink in situ Red PLA on fixed (4% PFA), permeabilised (0.1% Tween) mouse VSMCs; WT and MIRO1-/- cells, synchronised by serum starvation (0 h) and 24 h and 48 h after release with 10% FBS; primary antibodies overnight at 4 °C; PLA signals counted with ImageJ.

Assay [2] has as its target MIRO1 (mitochondrial rho GTPase 1), endogenous in mouse VSMCs (mouse (endogenous in aortic VSMCs)) (UniProt Q8BG51). Described as above.
The target in assay [3] is c-Myc tagged MIRO1 KK (MIRO1 E208K/E328K, EF-hand mutant) (UniProt Q8IXI2). Kind of assay: co-IP; c-Myc mouse antibody on Dynabeads Protein G precipitates c-Myc tagged MIRO1 constructs from whole-cell lysates of HEK cells (1 mg lysate, overnight, 4 °C); washing buffer 25 mM Tris HCl, 150 mM NaCl, 1% NP-40, 1 mM EDTA, 5% glycerol; eluted in LDS, immunoblot.
For assay [4], the target named is c-Myc tagged MIRO1 dnC (MIRO1 S432N, dominant-negative C-terminal GTPase domain) (UniProt Q8IXI2). Described as above.
For assay [5], the target named is c-Myc tagged MIRO1 (mitochondrial rho GTPase 1), wild type (UniProt Q8IXI2). The description is as above.

These are yes or no findings as the source states them, for the method shown. Binding seen in cells or lysates may run through a third protein. Some entries that bind do so weakly or less than the wild type.

As to “VAPB, endogenous in mouse VSMCs (from UniProt Q9QY76 1-243)”, the binding result in assay [1] was “binds”.
Regarding “GRP75, endogenous in mouse VSMCs (from UniProt P38647 47-679)”, the binding result in assay [2] was “binds”.
As to “GRP75 (glucose-related protein 75), endogenous in HEK cells (from UniProt P38646 47-679)”, the binding result in assay [3] was “binds weakly”; in assay [4], “binds”; in assay [5], “binds”.
For “MCU (mitochondrial Ca2+ uniporter), endogenous in HEK cells (from UniProt Q8NE86 51-351)”, the binding entry in assay [3] is given as “binds weakly”; in assay [4] it was “binds”; in assay [5] it was “binds”.
As to “VDAC1 (voltage-dependent anion channel 1), endogenous in HEK cells (from UniProt P21796 1-283)”, the binding entry in assay [5] is listed as “no binding”.
For the substance “VAPB, endogenous in HEK cells (from UniProt O95292 1-243)”, the binding result in assay [5] is reported as “no binding”.
